Read counts are not given, so values of variants with three or more changes are uncertain.
B1: CPEB3 Ribozyme (parent)
chain: UAACAGGGGGCCACAGCAGAAGCGUUCACGUCGCAGCCCCUGUCAGAUUCUGGUGAAUCUGCGAAUUCUGCUGUAUAUCUC

Variants of: B1
Test: self-cleavage, relative activity (ratio to wild type); higher = more cleavage; in vitro, sequencing
Method in brief: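 For each CPEB3 ribozyme variant, relative activity is its cleaved/total read fraction divided by the unmutated ribozyme's. Barcoded error-prone PCR libraries were transcribed by T7 RNA polymerase (5 hours, 37°C) and held in DNase I for 15 min before an EDTA stop, with cleavage occurring throughout. Template-switching reverse transcription and Illumina sequencing were used to read the RNAs. A 5-read minimum applied, and results are the mean of three batches.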

Variant	self-cleavage
UAACAGGGGGCCACAGCAGAAGCGUUCACGUCGCAGCCCCUGUCAGAUUCCGGUGAAUCUCCGAAUUCUGCCGUAUAUCUC	0.41
UAACAGGGGGCCACAGCAGAAGCGUUCACGUCGCAGCCCCUGUCAGAUUCCGGUGAAUCUGCAAAUACUGCUGUAUAUCUC	0.75
UAACAGGGGGCCACAGCAGAAGCGUUCACGUCGCAGCCCCUGUCAGAUUCCGGUGAAUCUGCAAAUUCCGCUGUAUAACUC	0.66
UAACAGGGGGCCACAGCAGAAGCGUUCACGUCGCAGCCCCUGUCAGAUUCCGGAGAAUCUGCGGAUUCUGCUGUAUAUCUC	0.79
UAACAGGGGGCCACAGCAGAAGCGUUCACGUCGCAGCCCCUGUCAGAUUCCGGAGAAUCCGCGAAUCGUGCUGUAUAUCUC	0.22
UAACAGGGGGCCACAGCAGAAGCGUUCACGUCGCAGCCCCUGUCAGAUUCCGGCGGAUCUGCGAACUCUGCUGUAUAUCUC	0.37
UAACAGGGGGCCACAGCAGAAGCGUUCACGUCGCAGCCCCUGUCAGAUUCCGGCGAGUCUGCGAAUUCUGCUGUAUAUCUC	0.67
UAACAGGGGGCCACAGCAGAAGCGUUCACGUCGCAGCCCCUGUCAGAUUCCGGCGAAACUGCGAAUUCUGCUGUAUAUCUC	0.41
UAACAGGGGGCCACAGCAGAAGCGUUCACGUCGCAGCCCCUGUCAGAUUCCGGCGAAUCAGCGAAUUCCGCUGUAUAUAUC	0.46
UAACAGGGGGCCACAGCAGAAGCGUUCACGUCGCAGCCCCUGUCAGAUUCCGGCGAAUCCGCGAAUUCCGCUGUAUAUCUC	0.4
UAACAGGGGGCCACAGCAGAAGCGUUCACGUCGCAGCCCCUGUCAGAUUCCGGCGAAUCCGCGAAUUCUGCAGUAUAUCUC	0.25
UAACAGGGGGCCACAGCAGAAGCGUUCACGUCGCAGCCCCUGUCAGAUUCCGGCGAAUCUGCGAAUUCUGCAGUAUAUCUC	0.65
UAACAGGGGGCCACAGCAGAAGCGUUCACGUCGCAGCCCCUGUCAGAUUCCGGCGAAUCUGCGAAUUCUGCCGUAUAUCUC	1.15
UAACAGGGGGCCACAGCAGAAGCGUUCACGUCGCAGCCCCUGUCAGAUUCCGGCGAAUCUGCGAAUUCUGCCGUAUGUCUC	1.22
UAACAGGGGGCCACAGCAGAAGCGUUCACGUCGCAGCCCCUGUCAGAUUCCGGCGAAUCUGCGAAUUCUGCUGAAUAUCUC	1.24
UAACAGGGGGCCACAGCAGAAGCGUUCACGUCGCAGCCCCUGUCAGAUUCCGGGGAAUCUGCGAAUCCUGCUGUAUAUCUC	0.4
UAACAGGGGGCCACAGCAGAAGCGUUCACGUCGCAGCCCCUGUCAGAUUCCGGUGAAACUGCGAAUUCUGCUGUAUGUCUC	0.21
UAACAGGGGGCCACAGCAGAAGCGUUCACGUCGCAGCCCCUGUCAGAUUCCGGUGAAACUGCGAAUUUUGCUGUAUAUCUC	0.16
UAACAGGGGGCCACAGCAGAAGCGUUCACGUCGCAGCCCCUGUCAGAUUCCGGUGAAACAGCGAAUUCUGCUGUAUAUCUC	0.23
UAACAGGGGGCCACAGCAGAAGCGUUCACGUCGCAGCCCCUGUCAGAUUCCGGUGAACCUGCGAAUACUGCUGUAUACCUC	0.19
UAACAGGGGGCCACAGCAGAAGCGUUCACGUCGCAGCCCCUGUCAGAUUCCGGUGAAUCAGCGUAUUCUGCUGUAUAUCUC	0.51
UAACAGGGGGCCACAGCAGAAGCGUUCACGUCGCAGCCCCUGUCAGAUUCCGGUGAAUCAGCGAGUUCUGCUGUAUAUCUC	0.46
UAACAGGGGGCCACAGCAGAAGCGUUCACGUCGCAGCCCCUGUCAGAUUCCGGUGAAUCAGCGAGUUCUGCUGUAUACCUC	0.17

Variant	self-cleavage
UAACAGGGGGCCACAGCAGAAGCGUUCACGUCGCAGCCCCUGUCAGAUUCCGGUGAAUCAGCAAAUUCAGCAGUAUAUCAC	0.43
UAACAGGGGGCCACAGCAGAAGCGUUCACGUCGCAGCCCCUGUCAGAUUCCGGUGAAUCAGCGAACUCUGCUGUAUAUCUC	0.43
UAACAGGGGGCCACAGCAGAAGCGUUCACGUCGCAGCCCCUGUCAGAUUCCGGUGAAUCAGCGAAUUCCGCUGUAUAUCUA	0.35
UAACAGGGGGCCACAGCAGAAGCGUUCACGUCGCAGCCCCUGUCAGAUUCCGGUGAAUCAGCGAAUUCUGCAGUGUAUCUC	0.6
UAACAGGGGGCCACAGCAGAAGCGUUCACGUCGCAGCCCCUGUCAGAUUCCGGUGAAUCCGCGAAUUCUGCUGUAUCUCUC	0.3
UAACAGGGGGCCACAGCAGAAGCGUUCACGUCGCAGCCCCUGUCAGAUUCCGGUGAAUCCGCGAAUUCUGCUGUAUGUCUC	0.35
UAACAGGGGGCCACAGCAGAAGCGUUCACGUCGCAGCCCCUGUCAGAUUCCGGUGAAUCCGCGAAUUCUGCUGUAUAUCUU	0.39
UAACAGGGGGCCACAGCAGAAGCGUUCACGUCGCAGCCCCUGUCAGAUUCCGGUGAAUCCGCGAAUUCUGCCGUAUAUCUC	0.32
UAACAGGGGGCCACAGCAGAAGCGUUCACGUCGCAGCCCCUGUCAGAUUCCGGUGAAUCGGCGAAUUCUGCUGUGUAUCUC	0.15
UAACAGGGGGCCACAGCAGAAGCGUUCACGUCGCAGCCCCUGUCAGAUUCCGGUGAAUCUGCGAACUCCGCUGUAUAUCCC	0.34
UAACAGGGGGCCACAGCAGAAGCGUUCACGUCGCAGCCCCUGUCAGAUUCCGGUGAAUCUGCGAAUUCCGCAGUAUAUCUC	0.43
UAACAGGGGGCCACAGCAGAAGCGUUCACGUCGCAGCCCCUGUCAGAUUCCGGUGAAUCUGCGAAUUCCGCUGAAUAUCUC	0.53
UAACAGGGGGCCACAGCAGAAGCGUUCACGUCGCAGCCCCUGUCAGAUUCCGGUGAAUCUGCGAAUUCUGCCAUAUAUCUC	1.29
UAACAGGGGGCCACAGCAGAAGCGUUCACGUCGCAGCCCCUGUCAGAUUCCGGUGAAUCUGCGAAUUCUGCUGUACAUCCC	1.21
UAACAGGGGGCCACAGCAGAAGCGUUCACGUCGCAGCCCCUGUCAGAUUCCGGUGAAUCUGCGAAUUCUGCUGUAUACCCC	0.72
UAACAGGGGGCCACAGCAGAAGCGUUCACGUCGCAGCCCCUGUCAGAUUCGGGUGAGUCUGCGAAAUCCGCUGUAUAUCUC	0.29
UAACAGGGGGCCACAGCAGAAGCGUUCACGUCGCAGCCCCUGUCAGAUUCGGGUGAGUCUGCGAACUCUGCUGUAUAUCUC	0.26
UAACAGGGGGCCACAGCAGAAGCGUUCACGUCGCAGCCCCUGUCAGAUUCGGGUGAGUCUGCGAAUUCUGCAGUAUAUCUC	0.62
UAACAGGGGGCCACAGCAGAAGCGUUCACGUCGCAGCCCCUGUCAGAUUCGGGUGAGUCUGCGAAUUCUGCUGUAAAUCAC	1
UAACAGGGGGCCACAGCAGAAGCGUUCACGUCGCAGCCCCUGUCAGAUUCGGGUGAUUCUGCGAAUUCUGCCGUAUAUCCC	0.65
UAACAGGGGGCCACAGCAGAAGCGUUCACGUCGCAGCCCCUGUCAGAUUCGGGUGAAUCUGCGGAUCCCGCUGUAUAUCUU	0.19
UAACAGGGGGCCACAGCAGAAGCGUUCACGUCGCAGCCCCUGUCAGAUUCGGGUGAAUCUGCGGAUUCAGCUGUGUAUCCC	0.26
UAACAGGGGGCCACAGCAGAAGCGUUCACGUCGCAGCCCCUGUCAGAUUCGGGUGAAUCUGCGGAUUCCGCUGUAUAUCUC	0.24

Variant	self-cleavage
UAACAGGGGGCCACAGCAGAAGCGUUCACGUCGCAGCCCCUGUCAGAUUCGGGUGAAUCUGCGGAUUCUGCUGCUUAUCUC	1.24
UAACAGGGGGCCACAGCAGAAGCGUUCACGUCGCAGCCCCUGUCAGAUUCGGGUGAAUCUGCGUGUUCUGCUGUAUAUCUC	0.25
UAACAGGGGGCCACAGCAGAAGCGUUCACGUCGCAGCCCCUGUCAGAUUCGGGUGAAUCUGCGAAUUCUGCUGUGUAUCCC	0.53
UAACAGGGGGCCACAGCAGAAGCGUUCACGUCGCAGCCCCUGUCAGAUUCGGGUGAAUCUGAGAGCUCUGCUGUAUAUCUC	0.25
UAACAGGGGGCCACAGCAGAAGCGUUCACGUCGCAGCCCCUGUCAGAUUCGGGCGUAUCUGCGAAUUCUGCUGUAUAUCUC	0.61
UAACAGGGGGCCACAGCAGAAGCGUUCACGUCGCAGCCCCUGUCAGAUUCGGGCGAACCUGCGAAUUCUGCUGUAUAUCUC	0.45
UAACAGGGGGCCACAGCAGAAGCGUUCACGUCGCAGCCCCUGUCAGAUUCGGGUGAACCUGUGAUUUCUGCCGUAUAUCUC	0.23
UAACAGGGGGCCACAGCAGAAGCGUUCACGUCGCAGCCCCUGUCAGAUUCGGGUGAAUCUGCGAACUCUGCAGUAUAUCCC	0.6
UAACAGGGGGCCACAGCAGAAGCGUUCACGUCGCAGCCCCUGUCAGAUUCGGGUGAAUCUGCGAACUCUGCUGUAUACCUC	0.27
UAACAGGGGGCCACAGCAGAAGCGUUCACGUCGCAGCCCCUGUCAGAUUCGGGUGAAUCUGCGAAUUCAGCUAUAUAUCUC	1.01
UAACAGGGGGCCACAGCAGAAGCGUUCACGUCGCAGCCCCUGUCAGAUUCGGGUGAAUCUGCGAAUUCAGCAGUAUAUCUC	0.37
UAACAGGGGGCCACAGCAGAAGCGUUCACGUCGCAGCCCCUGUCAGAUUCGGGUGAAUCUGCGAAUUCUGCCGUUUAUCUC	1.27
UAACAGGGGGCCACAGCAGAAGCGUUCACGUCGCAGCCCCUGUCAGAUUCGGGUGAAUCUGCGAAUUCUGCUGAAUAACUC	1.16
UAACAGGGGGCCACAGCAGAAGCGUUCACGUCGCAGCCCCUGUCAGAUUCGGGUGAAUCUGCGAAUUCUGCUGUAUAAGUC	1.26
UAACAGGGGGCCACAGCAGAAGCGUUCACGUCGCAGCCCCUGUCAGAUUCUAGUGCAUCUGCGAAUUCAGCUGUAUAUCUC	0.49
UAACAGGGGGCCACAGCAGAAGCGUUCACGUCGCAGCCCCUGUCAGAUUCUAGUGGAUCAGCGAAUUCCGCUGUAUAUCUC	0.26
UAACAGGGGGCCACAGCAGAAGCGUUCACGUCGCAGCCCCUGUCAGAUUCUAGUGGAUCUGCGAAUUCUGCUGUAUAUCCC	1.15
UAACAGGGGGCCACAGCAGAAGCGUUCACGUCGCAGCCCCUGUCAGAUUCUAGUGUAUCUGCGUAUUCUGCUGUAUAUCUC	0.36
UAACAGGGGGCCACAGCAGAAGCGUUCACGUCGCAGCCCCUGUCAGAUUCUAGUGAGUCUGCGAAUUCUGCUGUAUGUCUC	1.14
UAACAGGGGGCCACAGCAGAAGCGUUCACGUCGCAGCCCCUGUCAGAUUCUAGUGAGUCAGCGAAUUCUGCUGUAUAUCUC	0.37
UAACAGGGGGCCACAGCAGAAGCGUUCACGUCGCAGCCCCUGUCAGAUUCUAGUGAAUCUGCGCAUCCUGCUGUAUAUCUC	0.46
UAACAGGGGGCCACAGCAGAAGCGUUCACGUCGCAGCCCCUGUCAGAUUCUAGUGAAUCUGCGGAUUCUUCUGUAUAUCUC	0.45

Reference: the RNAGym collection of RNA variant scans (doi:10.1093/nar/gkz1192)
